Data on 90 compounds can be found in PubChem BioAssay AID360 (National Center for Advancing Translational Sciences (NCATS), 2006).

Out of some 48,000 compounds screened, about 550 (1.1%) were called active. Not shown: some 4% with an inconclusive outcome. Rule as the data show it: active = potency below about 15 µM; inconclusive = mostly about 16 µM to 33 µM; inactive = weaker than that. The list shows a part of the results. Where only a bound is given, the exact number is not on record here.
Potency is read from the fitted curve at half-maximal effect.

Chain of UniProt P04062 (P04062 whole entry, looked up): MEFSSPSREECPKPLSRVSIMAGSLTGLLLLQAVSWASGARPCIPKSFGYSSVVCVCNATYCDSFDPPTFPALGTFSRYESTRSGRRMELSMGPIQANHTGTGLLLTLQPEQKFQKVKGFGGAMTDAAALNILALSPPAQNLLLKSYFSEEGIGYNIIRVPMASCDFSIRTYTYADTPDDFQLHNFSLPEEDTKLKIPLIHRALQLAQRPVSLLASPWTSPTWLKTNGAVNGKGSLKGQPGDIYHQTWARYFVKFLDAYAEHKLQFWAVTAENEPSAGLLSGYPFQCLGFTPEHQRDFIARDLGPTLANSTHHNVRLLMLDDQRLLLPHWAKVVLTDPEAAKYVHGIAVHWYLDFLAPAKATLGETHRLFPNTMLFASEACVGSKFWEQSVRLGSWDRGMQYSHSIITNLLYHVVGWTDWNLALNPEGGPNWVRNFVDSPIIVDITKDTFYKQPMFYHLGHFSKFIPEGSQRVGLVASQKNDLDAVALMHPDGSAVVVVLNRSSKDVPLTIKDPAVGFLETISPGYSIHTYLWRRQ

This assay deals with Lysosomal acid glucosylceramidase (Homo sapiens) (UniProt P04062). Description: Glucocerebrosidase.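 Also: the screen sought inhibitors.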 The note with it: purified enzyme, resorufin glucoside fluorescence (screen aimed at inhibitors), 20 min; series mostly up to 77 µM. The gist of the method:
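Wild-type enzyme at 0.2 nM final in 50mM citric acid/KH2PO4, 10mM sodium taurocholate, 0.01% tween-20, pH 5.9, with resorufin beta-D-glucopyranoside at 30 uM final. Compounds titrated, 20 min at RT, red fluorescence read; AC50 from titration.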
For `CC1(C)Cc2c(sc(NC(=O)c3ccco3)c2C#N)CO1`, the Potency is inactive: > 76.9 µM. The figure for `CCS(=O)(=O)N1CCC(C(=O)NCc2ccccn2)CC1` is inactive: > 76.9 µM; for `COc1ccccc1CNC(=O)CCC(=O)Nc1nnc(C)s1` it is inactive: > 76.9 µM. With `CCCCn1c(S(=O)(=O)O)nc2ccccc21`, the Potency was inactive: > 76.9 µM. The figure for `CCOC(=O)CSc1nc2ccccc2c(=O)n1CC` is inactive: > 76.9 µM; for `COCCCn1c(SCC(=O)Nc2nnc(C)s2)nnc1-c1ccoc1C` it is inactive: > 76.9 µM. The same measure for `Cc1cc(SCC#N)n2nc(C)c(-c3ccccc3)c2n1`: inactive: > 76.9 µM; for `COc1ccc(OC)c(C2=Nn3c(nnc3-c3cccc(OC(C)C)c3)SC2)c1`: inactive: > 76.9 µM. The figure for `NC(=NC(=O)c1ccccc1)C1=C(O)CCC1=O` is inactive: > 76.9 µM; for `COc1ccccc1N1CCN(C(c2ccc(F)cc2)c2nnnn2C(C)C)CC1` (stereo not given) it is inactive: > 76.9 µM; for `COc1ccc(Cc2c(O)nc(SC)n(C(C)=O)c2=O)cc1` it is inactive: > 76.9 µM. Consider `O=C(Nc1ccccc1C(=O)NCc1ccccc1)c1ccco1`, for which the Potency was inactive: > 76.9 µM. The figure for `CC(C)(C)OC(=O)N1CCC[C@H]1c1nnc(SCc2ccccc2Cl)o1` is inactive: > 76.9 µM; for `CNC(=O)CSc1nnc(-c2ccco2)n1-c1ccccc1OC` it is inactive: > 76.9 µM. With `CC1CCc2c(sc3nc(SCC(=O)NCc4ccco4)nc(N)c23)C1` (stereo not given), the Potency is inactive: > 76.9 µM.

For `COc1ccc(S(=O)(=O)Nc2cc(C)on2)cc1OC`, the Potency was inactive: > 76.9 µM.

For `CCOc1cc(-c2noc(CCC(=O)N3CCOCC3)n2)ccc1OC`, the Potency is inactive: > 76.9 µM. The figure for `O=C(Nc1ccc(CCC(=O)N2CCCC2)cc1)c1ncn[nH]1` is inactive: > 76.9 µM; for `Cc1cccc(Nc2nnc(SCc3cn4ccsc4n3)s2)c1` it is inactive: > 76.9 µM.

Turning to `CSC1=C(C#N)C(C)C2=C(CC(C)(C)CC2=O)N1` (stereo not given), the Potency is inactive: > 76.9 µM. The same measure for `COCCn1c(SCC(=O)N2CCCc3ccccc32)nnc1-c1ccco1`: inactive: > 76.9 µM; for `COC(=O)c1ccccc1NC(=O)C1CC=CCC1C(=O)O` (stereo not given): inactive: > 76.9 µM; for `Cn1c(C(=O)N2CCCC(C(=O)O)C2)cc2sccc21` (stereo not given): inactive: > 76.9 µM. On to `O=C(CS(=O)CC(=O)N(CC(=O)NC1CCCC1)C1CCCC1)Nc1ccc(F)cc1` (stereo not given), for which the Potency was inactive: > 76.9 µM. The same measure for `CC(=O)c1c(C(C)=O)c(C)n(NC(=O)c2cccnc2)c1C`: inactive: > 76.9 µM; for `COc1cc(Cl)c(C)cc1NC(=O)COC(=O)c1cnc(C)cn1`: inactive: > 76.9 µM.

Turning to `O=C(Cn1c(=O)oc2ccccc21)N(Cc1ccccc1)C1CCS(=O)(=O)C1` (stereo not given), the Potency is inactive: > 76.9 µM. The same measure for `COc1ccc(N2CCN(CCNC(=O)C3CC(=O)N(C4CCCC4)C3)CC2)cc1` (stereo not given): inactive: > 76.9 µM; for `Cc1ccc(N2C(=O)[C@@H]3[C@H](C2=O)C2c4ccccc4C=CN2[C@@H]3C(=O)c2ccco2)c(C)c1` (stereo not given in full): inactive: > 76.9 µM. The same measure for `CCSc1nnc(C)n1-c1ccc(C(=O)O)cc1`: inactive: > 76.9 µM; for `CCOC(=O)c1cc2sccc2n1CC(=O)c1ccc2c(c1)OCCO2`: inactive: > 76.9 µM; for `CCc1nnc(NC(=O)CSc2nnc(CNc3cccc(C)c3)n2-c2ccccc2)s1`: active: 11.3 µM. `CN(C)S(=O)(=O)c1cccc(C(=O)N(Cc2ccc(F)cc2)Cc2ccco2)c1`: the Potency is inactive: > 76.9 µM.

On to `COC(=O)C1=C(N)Oc2cc(C)n(CC3CCCO3)c(=O)c2C1c1ccccc1` (stereo not given), for which the Potency is inactive: > 76.9 µM. The same measure for `Cc1cc(C(=O)NCc2cc(C(=O)O)oc2C)c(C)o1`: inactive: > 76.9 µM. As to `Cc1cccn2c(=O)c(C=Nc3ccccc3)c(NCCO)nc12`, the Potency is inactive: > 76.9 µM. The figure for `COC(=O)C1=C(C)NC(=O)C1(NC(=O)c1cccnc1)C(F)(F)F` (stereo not given) is inactive: > 76.9 µM; for `Cc1noc(N)c1C(=O)Nc1ccc(F)cc1` it is inactive: > 76.9 µM. The same measure for `NC(=O)c1c(NC(NC(=O)c2ccco2)(C(F)(F)F)C(F)(F)F)sc2c1CCCC2`: inactive: > 76.9 µM.

Turning to `CCOC(=O)C1C2C=CC3(CN(Cc4cccs4)C(=O)C13)O2` (stereo not given), the Potency was inactive: > 76.9 µM.

For `COc1ccc(C2CC(=O)C3=C(C2)Nc2ncnn2C3c2ccccc2C)c(OC)c1` (stereo not given), the Potency was inactive: > 76.9 µM. As for `CCOC(=O)c1c(NC(=O)CSc2ncn[nH]2)sc(C)c1C`, the Potency was inactive: > 76.9 µM.

As for `Cc1cc(C)nc(SCc2nnc(SCC(=O)N3CCCc4ccccc43)n2C)n1`, the Potency is inactive: > 76.9 µM. The figure for `COc1cc(C#N)ccc1OCC(=O)c1ccc2c(c1)OCCO2` is inactive: > 76.9 µM; for `CCOc1ccccc1N1CCN(S(=O)(=O)c2cccs2)CC1` it is inactive: > 76.9 µM; for `Cc1cc(C)n(-c2ccc(C(=O)NCc3cccs3)cc2)n1` it is inactive: > 76.9 µM. With `O=C(COc1ccc(F)cc1)NC1CC1`, the Potency is inactive: > 76.9 µM. Take `CCOc1ccccc1C1CC(=O)Nc2cc3c(cc21)OCO3` (stereo not given): the Potency is inactive: > 76.9 µM. For the compound `COCCNS(=O)(=O)c1ccc(SC)cc1`, the Potency was inactive: > 76.9 µM. The figure for `O=C(COc1ccccc1)c1cn(CC(=O)N2CCOCC2)c2ccccc12` is inactive: > 76.9 µM; for `CN(C)c1nc(SCC#N)nc(N(C)C)n1` it is inactive: > 76.9 µM; for `CCn1c2ccccc2c2nnc(SCC(=O)N3CC(C)OC(C)C3)nc21` (stereo not given) it is inactive: > 76.9 µM. With `Clc1ccccc1-c1nc(-c2ccccc2)n[nH]1`, the Potency is inactive: > 76.9 µM. The figure for `O=c1cc[nH]c2cc(C(F)(F)F)ccc12` is inactive: > 76.9 µM; for `O=C(Cn1cnc2ccccc2c1=O)NCc1ccco1` it is inactive: > 76.9 µM; for `Cc1noc(C)c1COC(=O)c1ccccc1NC(=O)Cc1ccccc1` it is inactive: > 76.9 µM. The figure for `COc1ccccc1-c1nnc(NC(=O)c2ccc(S(=O)(=O)N(C)Cc3ccccc3)cc2)o1` is inactive: > 76.9 µM. The figure for `Cc1cc(CN2CCN(CCC#N)CC2)c(O)c(C2(C)CCCCC2)c1` is inactive: > 76.9 µM. `Cc1cc(C)n(-c2ccc(F)cc2)c(=O)c1C(=O)O`: the Potency was inactive: > 76.9 µM. For the compound `COc1cccc(-n2nnc3c(=O)n(Cc4ccc(Br)cc4)cnc32)c1`, the Potency was inactive: > 76.9 µM. The same measure for `O=C(Cn1nnc(-c2cccc(C(F)(F)F)c2)n1)NC1CCCC1`: inactive: > 76.9 µM; for `C=CCn1c(SCCN2CCOCC2)nc2c1c(=O)[nH]c(=O)n2C`: inactive: > 76.9 µM; for `CCOc1cccc2cc(-c3csc(NC(=O)CCC(=O)N4CCN(C)CC4)n3)c(=O)oc12`: active: 12.4 µM. The same measure for `Cc1cc2c(c(=O)n1CCN(C)C)C(c1ccccc1Br)C(C#N)=C(N)O2` (stereo not given): inactive: > 76.9 µM; for `O=C(O)c1cc(Cl)ccc1NC(=O)C1CCCO1` (stereo not given): inactive: > 76.9 µM. The figure for `O=c1[nH]c2cc3c(cc2cc1CN(CCCO)Cc1nnnn1Cc1ccc(F)cc1)OCO3` is inactive: > 76.9 µM; for `CC(C)(C)n1nnnc1CN1CCN(C2CCCC2)CC1` it is inactive: > 76.9 µM.

Consider `NC(=O)c1ccccc1N/C=C/C(=O)c1ccccc1`, for which the Potency is inactive: > 76.9 µM. The same measure for `Cc1cc(C)nc(N2CCC(C(=O)NCc3cccs3)CC2)n1`: inactive: > 76.9 µM.

In the case of `CCOc1cccc(/C(O)=C2/C(=O)C(=O)N(Cc3ccco3)C2c2ccncc2)c1` (stereo not given), the Potency was inactive: > 76.9 µM. The figure for `CCn1ncc(Cl)c1C(=O)Nc1ccncc1` is inactive: > 76.9 µM; for `Cc1nc2cc(C(=O)OCC(=O)N(CC(C)C)C3CCS(=O)(=O)C3)ccc2n1-c1ccccc1` (stereo not given) it is “inactive”; for `CCOC(=O)N1CCN(C(=O)Nc2ccc3oc(C)nc3c2)CC1` it is inactive: > 76.9 µM. The figure for `CCN(CC)S(=O)(=O)c1ccc2c(c1)c(=O)c(C(=O)NCCN(C)CCc1ccccc1)cn2C` is active: 5.58 µM; for `Cc1cc(C(=O)OCC(=O)c2c(N)n(C)c(=O)n(C)c2=O)c(C)n1-c1ccccc1` it is inactive: > 76.9 µM; for `COC(=O)c1ccc(CN2C(=O)NC3(CCC(C)CC3)C2=O)o1` (stereo not given) it is inactive: > 76.9 µM.

Turning to `COc1ccc(CCNc2oc(Cc3cccc4ccccc34)nc2C#N)cc1OC`, the Potency was inactive: > 76.9 µM.

Turning to `CCSC1=C(C#N)C(c2ccccc2C)CC(=O)N1` (stereo not given), the Potency was inactive: > 76.9 µM. The figure for `Cc1ccc(NC(=O)C2CCCN(S(=O)(=O)c3cccs3)C2)cc1` (stereo not given) is inactive: > 76.9 µM.

Turning to `Cc1cc(C)n(-c2nnc3n2N=C(c2ccccc2)CS3)n1`, the Potency is inactive: > 76.9 µM. Consider `CCc1nc2ccccc2c(NC(=O)CN2CCC(C)CC2)c1C`, for which the Potency is inactive: > 76.9 µM. The figure for `Cc1ccccc1-n1nnnc1SCc1csc(-c2ccccc2)n1` is inactive: > 76.9 µM.

As to `COc1ccc(NC(=O)CCc2nc(-c3ccc(C)cc3)no2)c(OC)c1`, the Potency was inactive: > 76.9 µM. The same measure for `COc1cc2c(cc1OC)CN(C(=O)c1cccs1)CC2`: inactive: > 76.9 µM. The same measure for `CC1=CC(C)(C)N2C(=O)C3(C(C#N)=C(N)Oc4cc(O)ccc43)c3cccc1c32` (stereo not given): inactive: > 76.9 µM.

Consider `Fc1ccc(-c2nnc(CSc3nnc(-c4ccc5c(c4)OCO5)o3)o2)cc1`, for which the Potency was inactive: > 76.9 µM. The same measure for `COC(=O)c1cc(NC(=O)C2CC=CCC2C(=O)O)cc(C(=O)OC)c1` (stereo not given): inactive: > 76.9 µM; for `Cn1nnnc1SCC(=O)N1CCN(C(c2ccccc2)c2ccccc2)CC1`: inactive: > 76.9 µM. On to `CN(Cc1nc(-c2ccccn2)no1)S(=O)(=O)c1ccccc1`, for which the Potency was inactive: > 76.9 µM. The figure for `CCC(c1nnnn1Cc1ccco1)N(CCN1CCOCC1)Cc1cc2cc(C)ccc2[nH]c1=O` (stereo not given) is inactive: > 76.9 µM.
